# Experimental data taken from the supplement of paper PMC8728848.
# The other results are listed elsewhere or left out.
# Tests used:
# Test in all cases: glycan array binding signal (z-score within array); higher = stronger binding
# Conditions in all cases: glycan notation: IUPAC condensed, linker removed
# [1] = target: Fuc(a1-2)Gal(b1-4)[Fuc(a1-3)]GlcNAc(b1-2)[Fuc(a1-2)Gal(b1-4)[Fuc(a1-3)]GlcNAc(b1-4)]Man(a1-3)[Fuc(a1-2)Gal(b1-4)[Fuc(a1-3)]GlcNAc(b1-2)Man(a1-6)]Man(b1-4)GlcNAc(b1-4)GlcNAc
# In short: (§1)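 The Consortium for Functional Glycomics database supplied 3228 glycan arrays, of which those lacking an available protein sequence were dropped. The binding signal, a within-array Z-score, was averaged across arrays of the same protein sequence and across linkers. Negative scores can be read as non-binding.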
# [2] = target: Fuc(a1-2)Gal(b1-4)[Fuc(a1-3)]GlcNAc(b1-3)Gal(b1-4)[Fuc(a1-3)]GlcNAc
# In short: as §1
# [3] = target: Fuc(a1-2)Gal(b1-4)[Fuc(a1-3)]GlcNAc(b1-3)Gal(b1-4)[Fuc(a1-3)]GlcNAc(b1-3)Gal(b1-4)[Fuc(a1-3)]GlcNAc
# In short: as §1
# [4] = target: Fuc(a1-2)Gal(b1-4)[Fuc(a1-3)]GlcNAc(b1-3)GalNAc
# In short: as §1
# [5] = target: Fuc(a1-2)Gal6S(b1-4)Glc
# In short: as §1
# [6] = target: Fuc(a1-2)Gal6S(b1-4)Glc6S
# In short: as §1
# [7] = target: Fuc(a1-2)Gal6S(b1-4)GlcNAc
# In short: as §1
# [8] = target: Fuc(a1-2)[Gal(a1-3)]Gal
# In short: as §1
# [9] = target: Fuc(a1-2)[Gal(a1-3)]Gal(b1-3)GlcNAc
# In short: as §1
# [10] = target: Fuc(a1-2)[Gal(a1-3)]Gal(b1-3)GlcNAc(b1-2)Man(a1-3)[Fuc(a1-2)[Gal(a1-3)]Gal(b1-3)GlcNAc(b1-2)Man(a1-6)]Man(b1-4)GlcNAc(b1-4)GlcNAc
# In short: as §1
# [11] = target: Fuc(a1-2)[Gal(a1-3)]Gal(b1-3)GlcNAc(b1-3)GalNAc
# In short: as §1
# [12] = target: Fuc(a1-2)[Gal(a1-3)]Gal(b1-4)Glc
# In short: as §1
# [13] = target: Fuc(a1-2)[Gal(a1-3)]Gal(b1-4)GlcNAc
# In short: as §1
# [14] = target: Fuc(a1-2)[Gal(a1-3)]Gal(b1-4)GlcNAc(b1-2)Man(a1-3)[Fuc(a1-2)[Gal(a1-3)]Gal(b1-4)GlcNAc(b1-2)Man(a1-6)]Man(b1-4)GlcNAc(b1-4)GlcNAc
# In short: as §1
# [15] = target: Fuc(a1-2)[Gal(a1-3)]Gal(b1-4)GlcNAc(b1-2)Man(a1-3)[Fuc(a1-2)[Gal(a1-3)]Gal(b1-4)GlcNAc(b1-2)Man(a1-6)]Man(b1-4)GlcNAc(b1-4)[Fuc(a1-6)]GlcNAc
# In short: as §1
# [16] = target: Fuc(a1-2)[Gal(a1-3)]Gal(b1-4)GlcNAc(b1-3)GalNAc
# In short: as §1
# [17] = target: Fuc(a1-2)[Gal(a1-3)]Gal(b1-4)[Fuc(a1-3)]Glc
# In short: as §1
# [18] = target: Fuc(a1-2)[Gal(a1-3)]Gal(b1-4)[Fuc(a1-3)]GlcNAc
# In short: as §1
# [19] = target: Fuc(a1-2)[Gal(a1-3)]Gal(b1-4)[Fuc(a1-3)]GlcNAc(b1-3)GalNAc
# In short: as §1
# [20] = target: Fuc(a1-2)[Gal(a1-4)]Gal(b1-4)GlcNAc
# In short: as §1
# [21] = target: Fuc(a1-2)[GalNAc(a1-3)]Gal
# In short: as §1
# [22] = target: Fuc(a1-2)[GalNAc(a1-3)]Gal(b1-3)GalNAc(a1-3)[Fuc(a1-2)]Gal(b1-4)GlcNAc
# In short: as §1
# [23] = target: Fuc(a1-2)[GalNAc(a1-3)]Gal(b1-3)GlcNAc
# In short: as §1
# [24] = target: Fuc(a1-2)[GalNAc(a1-3)]Gal(b1-3)GlcNAc(b1-2)Man(a1-3)[Fuc(a1-2)[GalNAc(a1-3)]Gal(b1-3)GlcNAc(b1-2)Man(a1-6)]Man(b1-4)GlcNAc(b1-4)GlcNAc
# In short: as §1
# [25] = target: Fuc(a1-2)[GalNAc(a1-3)]Gal(b1-3)GlcNAc(b1-3)GalNAc
# In short: as §1
# [26] = target: Fuc(a1-2)[GalNAc(a1-3)]Gal(b1-4)Glc
# In short: as §1
# [27] = target: Fuc(a1-2)[GalNAc(a1-3)]Gal(b1-4)GlcNAc
# In short: as §1
# [28] = target: Fuc(a1-2)[GalNAc(a1-3)]Gal(b1-4)GlcNAc(b1-2)Man(a1-3)[Fuc(a1-2)[GalNAc(a1-3)]Gal(b1-4)GlcNAc(b1-2)Man(a1-6)]Man(b1-4)GlcNAc(b1-4)GlcNAc
# In short: as §1
# [29] = target: Fuc(a1-2)[GalNAc(a1-3)]Gal(b1-4)GlcNAc(b1-3)Gal(b1-4)GlcNAc
# In short: as §1
# [30] = target: Fuc(a1-2)[GalNAc(a1-3)]Gal(b1-4)GlcNAc(b1-3)Gal(b1-4)GlcNAc(b1-3)Gal(b1-4)GlcNAc
# In short: as §1
binder,measurement,setting,value
Gal 7 (Canis lupus) (protein) MAGSSNVPHKTSLPEGIRVGTVMRIRGVVPNKAGRFYVNLLCGEAPGSEAALHFNPRLDESTVVFNTLEQGAWGREERGTGIPFQRGQPFDVLLIATDEGFKAVVGDSEYHHFRYRIPPARVRLLEVGGDLQLESVSVF,glycan array binding signal (z-score),[1],-0.168
same,glycan array binding signal (z-score),[2],-0.188
same,glycan array binding signal (z-score),[3],5.78
same,glycan array binding signal (z-score),[4],-0.159
same,glycan array binding signal (z-score),[5],-0.2
same,glycan array binding signal (z-score),[6],-0.192
same,glycan array binding signal (z-score),[7],-0.199
same,glycan array binding signal (z-score),[8],-0.214
same,glycan array binding signal (z-score),[9],0.004
same,glycan array binding signal (z-score),[10],0.444
same,glycan array binding signal (z-score),[11],-0.174
same,glycan array binding signal (z-score),[12],-0.139
same,glycan array binding signal (z-score),[13],-0.055
same,glycan array binding signal (z-score),[14],1.26
same,glycan array binding signal (z-score),[15],1.25
same,glycan array binding signal (z-score),[16],-0.183
same,glycan array binding signal (z-score),[17],-0.171
same,glycan array binding signal (z-score),[18],-0.203
same,glycan array binding signal (z-score),[19],-0.16
same,glycan array binding signal (z-score),[20],-0.216
same,glycan array binding signal (z-score),[21],-0.216
same,glycan array binding signal (z-score),[22],-0.149
same,glycan array binding signal (z-score),[23],0.526
same,glycan array binding signal (z-score),[24],0.631
same,glycan array binding signal (z-score),[25],-0.18
same,glycan array binding signal (z-score),[26],-0.099
same,glycan array binding signal (z-score),[27],0.378
same,glycan array binding signal (z-score),[28],2.5
same,glycan array binding signal (z-score),[29],3.55
same,glycan array binding signal (z-score),[30],2.59
